Laboratory results from the RNAGym collection of RNA variant scans (doi:10.7554/elife.90254).
The source gives no read counts; variants with many changes may rest on few reads.

B1: OR4K15 (parent)
chain: GUUAACGGUCAUAGGCCAUGGAAACUAGGAGCACCAUUUCGCUGCCAGUGAAGAAAUGAACAAAGAAAAUCUGGGCCAGGCAGGCAUCAAAAGAAAUAGUCUUGCGCUCAACCAGAAAGUCUGUAAUCAUUUUAAGGGUA

Variants of: B1
Experiment: self-cleavage, relative activity (ratio to wild type); higher = more cleavage; in vitro, sequencing; the parent is a self-cleaving ribozyme

Variant	self-cleavage
GUUAACGGUCAUAGGCCAUGGAAACUAGGAGCACCAUUUCGCCGCCAGUGAAGAAAUGAGCAAAGAAAAUCUGGGCCAGGCAGGCAUCAAAAGAAAUAGUCUUGCGCUCAACCAGAAAGUCUGUAAUCACUUUGAGGGUA	0.54
GUUAACGGUCAUAGGCCAUGGUAACUAGGAGCACCAUUUCGCUGCCAGUGAAGAAAUGAACAAAGAAAAUCUGGGCCAGGCAGGCAUCAAAAGAAACAGUCUUGUGCUCAACCAGAAGGUCUGUAAUCAUUUUAAGGGUA	0.02
GUUAUCGGUCAUAGGCCGUGGAAACUAGGAGCACCAUUUCGCUGCCAGUGAAGAAAUGAACAAAGAAAAUCUGGGCCAGGCAGGCAUCAAAAGAAAUAGUCUUGCGCUCAACCAGAAAGUUUGUAAUCGUUUUAAGGGUA	1.76
GUUAACGGUCAUAGGCCAUGGAAACUAGGAGCACCAUUUCGCUGCCUGUGUAGAAAUGAACAAAGAAAGUCUGGGCCAGGCAGGCAUCAAAAGAAAUAGUCUUGCGCUCAACCAGAAAGUCUGUAAUCAUUUUAAGGGUA	0.51
GUUAACGGUCAUAGGCCAUGGAAACUAGGAGCACCAUUUCGCUGUCAGUGAAGAAACGAACAGAGAAAAUCUGGGCCAGGCAGGCAUCAAAAGAAAUAGUCUUGCGCUCAACCAGAAAGUCUGUAGUCAUUUUAAGGGUA	1.35
GUUAACGGUCAUAGGCCAUGGAAACUAGGAGCACCAUUUCGCUGCCAGUGAAGAGAUGAGCAAAGAAAAUCUGGGCCAGGCAGGCAUCAAAGGAAAUAGUCUUGCGCACAACCAGAAAGUCUGUAAUCAUUUUAAGGGUA	0.03
GUUAACGGUCAUAGGCCAUGGAAACUAAGAGCACCAUUUCGCUGCAAGUGAAGAAAUGAACAAAGAAAAUCUGGGCCGGGCAGGCAUCAAAAGAAAUAGUCUUGCGCUCAACCAGAAAGUCUGUAAUCAUUUUAAGGGUA	0.34
GUUAACGGUCAUAGGCCAUGGAAACUAGGAGCACCAUUUCGCUGCCAGUGAAGAAACGAACAAAGAAGAUCUGGGCCAGGCUGGCAUCAAAAGAAAUAGUCUUGCGCUCAACCAGAAAGUCCGUAAUCAUUUUAAGGGUA	0.12
GUUAACGGUCAUAGGCCAUGGAAACUGGGAGCGCCAUUUCGCUGCCAGUGAAGAAGUGAACAAAGAAAAUCUGGGCCAGGCAGGCAUCAAAAGAAAUAGUCUUGCGCUCAACCAGAAAGUCUGUAAUCAUUUUAAGGGUA	1.41
GUUAACGGUCAUAGGCCAUGGAAACUAGGAGCACCACUCCGCUGCCAGUGAAGAAAUGAACAAAGAAAAUCUGGGCCAGGCAGGCAUCAAAAGAGAUAGUCUUGCGCUCAACCAGAAAGUCUGUAAUCAUUUUAAGAGUA	1.96
GUUAACGGUCAUAGGCCAUGGAAACUAGGAGCACCAUUUCGCUGCCAGUGAAGUAAUGAACAAAGAAAAUCUGGGCCGGGCAGGCAUCAAAAGAAAUAGUCUUGCGCUCGACCAGAAAGUCUGUAAUCAUUUUAAGGGUA	0.04
GUUAACGGUCAUAGGCCAUGGAAACUAGGAGCACCAUUUCGCUGCCAGUGAGGAAAUGAACAAAGAAAAUCUGGGCCAGGCUGGCGUCAAAAGAAAUAGUCUUGCGCUCAACCAGAAAGUCUGUAAUCAUUUUAAGGGUA	0.15
GUUAACGGUCAUAGGCCAUGGAAACUAGGAGCACCAUUUCGCUGCCAGUGAAGAAAUGAACAAAGAAAAUCAGGGCCAGGCAGGCAUCUAAAGAAAUAGUCCUGCGCUCAACCAGAAAGUCUGUAAUCAUUUUAAGGGUA	0.56
GUUAACGGUCAUAGGCCAUGGAAACUAGGAGCACCGUUUCGCUGCCAGUGAAGAAAUGAACAAAGGAAAUCUGGGCCAGGCAGGCAUCAAAAGAAACAGUCUCGCGCUCAACCAGAAAGUCUGUAAUCAUUUUAAGGGUA	0.76
GUUAACGGUCAUAGGCCAUGGAAACUAGGAGCACCACUUCGCUGCCAGUGAAGAGAUGAACAAAGAAAAUCUGGGCCAGGCAGGCAUCAAAAGAAAUAGUCUUGCGCUCAACCAGAAAGUCUGUAAUCAGUUUAAGGGUA	1.57
GUUAACGGUCAUAGGCCAUGGAAGCUAGGAGCACCAUUUCGCUGCCAGUGAAGAAAUGAACAAAGAAAAUCUGGGCCAGGCAGGCAUCAAAAGAAAUGGUCUUGCGCUCAACCAGGAAGUCUGAAAUCAUUUUAAGGGUA	0.5
GUUAACGGUCAUAGGCCCUGGAAACUAGGAGCACCAUUUCGCUGCCAGUGAAGAAAUGAACAAUGAAAAUCUGGGCCAGGCAGGCAUCAAAAGAAGUAGUCUUGCGCUCAACCAGAAAGUCUGUAUUCAUUUUAAGGGUG	1.52
GCUAACGGCCAUAGGCCAUGGAAACUAGGAGCACCAUUUCGCUGCCAGUGAAGAAAUGAACAAAGAAAAUCUGGGCCAGGCUGGCAUCAAGAGAAAUAGUCUUGCGCUCAACCAGAAAGUCUGUAAUCAUUUUAAGGGUA	0.2
GUUAACGGUCAUAGGCCAUGGAAACUAGGAGCACCAUCUCGCUGCCAGUGAAGAAAUGAACAAAGAAAAUCCGGGCCAGGCAGGCAUCAAAAGAAAUAGUCUUGCGCUCAACCAGUAAGUCUGUAAUCAUUUUAAGGGUA	0.08
GUUAACGGUCAUAGGCCAUGGAAACUAGGAGCACCGUUUCGCAGCCAGUGAAGAAAUGAACAAAGAAAAUCUGGGCCAGGCAGGCAUCAAAAGAAAUAGUCUUGCACUCAACCAGAAAGUCUGUAAUCAUUUUAAGGGUA	0.02
